72 sequences from paper PMC10726135 can be followed below.

Some of the results follow. At the low end of the ranking the order means little. Measured with an extract: partners may take part in the binding.

The target of the experiment is T1, HNF4alpha2 (COS-7 nuclear extract) (UniProt P41235).
T1 sequence: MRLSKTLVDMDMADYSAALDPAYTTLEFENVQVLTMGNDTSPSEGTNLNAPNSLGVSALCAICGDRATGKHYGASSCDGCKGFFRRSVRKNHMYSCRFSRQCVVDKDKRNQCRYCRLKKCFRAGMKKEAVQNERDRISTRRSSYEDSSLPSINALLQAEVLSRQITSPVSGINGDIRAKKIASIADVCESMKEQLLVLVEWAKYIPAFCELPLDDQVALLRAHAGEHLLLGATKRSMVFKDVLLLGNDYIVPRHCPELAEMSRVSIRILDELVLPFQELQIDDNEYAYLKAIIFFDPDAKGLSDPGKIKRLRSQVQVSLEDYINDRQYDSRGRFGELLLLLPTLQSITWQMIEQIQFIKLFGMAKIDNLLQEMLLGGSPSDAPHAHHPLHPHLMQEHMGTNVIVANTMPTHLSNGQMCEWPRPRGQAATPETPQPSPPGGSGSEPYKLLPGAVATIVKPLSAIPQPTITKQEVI
The experiment can be described thus: protein-binding microarray. As to conditions: COS-7 nuclear extract on double-stranded Agilent 4x180k PBM; binding buffer, salt, pH and temperature not given; high values mean tight binding; double strand, one strand shown; sequences stand for … in …GCCTAGGGAGATTAGAGTATCGGTCGA
For the sequence TTCTCTAGATGTCCCAGTAGATAACTTCAA, the binding signal (log2 normalized intensity) was found to be 0.2.
In the case of GTACCTTGACCTTCTCTGTTAACCCTTTGC, the binding signal (log2 normalized intensity) worked out at 3.76.
For the sequence CCTTGTGAGCAGGATTATAGTTTATCTACC, the binding signal (log2 normalized intensity) was 0.884.
For the sequence ATGGATTTGATAGAGTGATAGCATGGTTTA, the binding signal (log2 normalized intensity) is 0.713.
For the sequence AAGGCAAAAGAGACAGGACTTTACAAAGTA, the binding signal (log2 normalized intensity) is -1.25.
With TACACTGCCTCCTTCAAGGATTAGCAGATA, the binding signal (log2 normalized intensity) was -1.15.
Consider AACCCTTGCACTGCTGGTTTTTGTCAAAGA, for which the binding signal (log2 normalized intensity) was found to be 0.709.
In the case of GCACCCCTGCCCCCATGTTGTTCAAGGGTC it was 4.54; in that of TGCATAAGGACCTCCTGAGATAGGTATGAT, 0.777; in that of TCAGCTGGTCCTTCAAGTGTGACCCTGAAC, 3.65.
On to GAAAGAGCCCCTTTGTCCATTATCTCACTT, for which the binding signal (log2 normalized intensity) was 0.558.
Next, CTCCATTTCCTTCTAGCTCCCCAATAGACA: 3.46.
For CAGACCAGTAACCTAAGTCAGGAAACTGAC, the binding signal (log2 normalized intensity) was -1.08.
In the case of AGACAACCTTTGGTCACTTGTAAGATACTG it was 2.43.
AGGGTGTTGTGGAATGTGCTTGGACCTGCT: the binding signal (log2 normalized intensity) was determined as 1.99.
On to GCCTTTTATCCCTTTTGAGGCTGGAGGATC, for which the binding signal (log2 normalized intensity) came out at 0.747.
In the case of TCACAATAGGGTTCAAACTCCTATGTGAAT it was 1.39; in that of ACAAACCTTATCTCTCAAGGTTCCCAGCTA, -1.18; in that of TCCAAATCTAAGATATATCACCTGCCAGCT, -1.1.
Regarding AGAATGGAGAAAACAACATTCCTTGTGTTT, the binding signal (log2 normalized intensity) came out at 1.09.
Next, TACTTAGTGGCTCCTAGAATTATCCCACCC: 2.63.
On to TCAGAGGCTGATTTCTCAGGAAGTGCTTGT, for which the binding signal (log2 normalized intensity) turned out to be 0.636.
Take TCCATCATTTTTCTCTCTTGGACTCTTGGA: the binding signal (log2 normalized intensity) came out at 4.26.
With CATTTTTCTCTCTTGGACTCTTGGACTCCC, the binding signal (log2 normalized intensity) is 6.63.
In the case of CAGGTCTCTTTTATGTACCACCGTATTCCT it was 1.45.
With ATGGTTAAGGTGAAAGTCCGACTTTTAAGA, the binding signal (log2 normalized intensity) was found to be 3.23.
For the sequence AAAAGCTTTTCTTCCCCCCTCCCTCCGCAA, the binding signal (log2 normalized intensity) turned out to be 5.71.
Next, CTGAACCTTGCACTATTGACCCAGTGAAAC: 2.82.
For the sequence CATTTTACAGTGCCATTTATCAGTGATTTC, the binding signal (log2 normalized intensity) stood at 0.854.
With CTTCCCTAAGCAGCTGCAGTTTCTGCTATC, the binding signal (log2 normalized intensity) was -1.14.
Take GCCGGGAAGATGCCAGCCCCGAGATAACCC: the binding signal (log2 normalized intensity) came out at 3.22.
GGGAATGGCTCGTATGAATGTGGGAAGCTG: the binding signal (log2 normalized intensity) was -1.13.
In the case of CGGTCACATTCCACTCAGTCTCTTGAAATC, the binding signal (log2 normalized intensity) is 0.656.
Next, CCTCCTCCTTGGCTCTCCCCACTTACTTCC: 2.29; GGTCGGGGAGGTGTTTATCTTGTGGTTGGA: 2.4.
For the sequence GCCTGAACTGACTGCATTCCCTTTCTCCTC, the binding signal (log2 normalized intensity) was -1.12.
Regarding ATTTATCAAGATGAACTTTGACCCACCTAC, the binding signal (log2 normalized intensity) came out at 8.26.
Turning to AGAGAGAGGTGGGCAAAGGTCTCAAGGCCT, the binding signal (log2 normalized intensity) is 1.58.
Take TCAAATATTTGGATAATGTGCCCTTTGTAC: the binding signal (log2 normalized intensity) amounted to 6.6.
Consider AGAGAACTGAAAAAGGGGACCGGCCTTTCC, for which the binding signal (log2 normalized intensity) was -1.17.
Consider CTGTGTCTTGGCAGTGATCAGTGTTGAGAA, for which the binding signal (log2 normalized intensity) was determined as 1.27.
For TACAGAGTATAATAAAGTGGCAACCCTTGA, the binding signal (log2 normalized intensity) is 1.12.
Consider TTACTCATGTGGTCCTAAGACTAACCTTTG, for which the binding signal (log2 normalized intensity) amounted to 3.37.
Regarding ATAAGTTTTCTCATAAAACACCCACCTTGT, the binding signal (log2 normalized intensity) is -0.452.
In the case of TGAAAAGAGTGATCTTTGGGCCATATTGAC, the binding signal (log2 normalized intensity) amounted to 1.15.
With GCCTGAATGCAGGGAGCAGAGTCCCAAGCA, the binding signal (log2 normalized intensity) is -1.1.
Consider ACAGTAAAGAACAAACTTCCCCTGCAGCTG, for which the binding signal (log2 normalized intensity) was -1.12.
Consider TGGTCCCATAGGAAAGTGAGCATGGGCTTA, for which the binding signal (log2 normalized intensity) was -1.06.
In the case of AAGTGACTTCAAGGGAGTAAAGGTCGTTCT, the binding signal (log2 normalized intensity) amounted to 5.01.
For GTAGACACTCATCCCTTGCACTGCTCAGGG, the binding signal (log2 normalized intensity) was -0.883.
In the case of GCGGAAGCACACACGAGCTGTGCGCTTAGT, the binding signal (log2 normalized intensity) was -1.14.
On to GGCGGGGCAGCAGGGAAGAGCCGGCCGGCG, for which the binding signal (log2 normalized intensity) was -1.14.
In the case of CTGTGCAAGCCCCTGACCAAGGGTCATGCT it was 3.17; in that of GGTTCAAAGTGTAGCGCAGCCAGTTCTGGA, -1.02; in that of TCTGCTGTTCTTGCCTGATAGCATCGTGGG, 1.41.
Take CTTGGGGTAATCTCCCAATCTCGAGATCAT: the binding signal (log2 normalized intensity) was -1.18.
Turning to GAGAAAGAGGGGAAGGATGAATTTAAAAAA, the binding signal (log2 normalized intensity) is -1.23.
TAAAGTGTCTCCCTCTGCAGCAAAGTCCAG: the binding signal (log2 normalized intensity) worked out at 2.01.
Turning to TCTTTATTCGTGAGTTTTCCATTTACCTCC, the binding signal (log2 normalized intensity) amounted to 1.01.
ACAGCGTACTGTGCTAAAGAGTGATTGAAG: the binding signal (log2 normalized intensity) was -1.13.
As to CTCGCAGAAAGTGGCCGGACAGGTTGGGTC, the binding signal (log2 normalized intensity) came out at 1.
For TCCTGTTTGTCAGCATCTTCACCGTAAAGC, the binding signal (log2 normalized intensity) amounted to 0.344.
Next, ACTGGTGTTGCTCAAATATTTGGAGAGCAG: 0.77; CTATGTGAGGAATCTAAGATAAGCAGCATT: -1.04.
As to AGCCAAAATAAAGCAGCAAACCAGATAAGA, the binding signal (log2 normalized intensity) is -1.19.
For the sequence GTTGCCTGTGAGTCAGGTACCTGCTTCTGC, the binding signal (log2 normalized intensity) was 0.713.
Take GGTCGAAAGGCAGGCAGTGGAGGGCTCCCT: the binding signal (log2 normalized intensity) is -1.15.
Next, TAAAGGCTTTTAAAGGCTAGTGAAACATGC: -0.739; GCAAAGTGGCTAGGACCTTTGAACCAGAGA: 4.44.
In the case of TTTTCCACCCTCCCCTCCCCCTCCTCCCCT it was 7.13.
As to GTCAGCTTCAGCCAGATAGCCACTGGGGTC, the binding signal (log2 normalized intensity) was determined as 2.25.
Next, CGCCCCCATTATCTCCTTAGGTACTTTTCT: 0.449.
